The supplement of paper PMC4604168 (melanoma cell lines)
The list shows a part of the results. Many values rest on one well or one pass, so single values are uncertain.

Columns and labels:
Assay in all cases: cell count relative to DMSO control; melanoma cells; higher = more viable cells
Conditions in all cases: library dose: standard library concentration; 72 h
[1] = tested on: G361
[2] = tested on: IPC-298
[3] = tested on: IST-MEL1
[4] = tested on: LB2518-MEL
[5] = tested on: LOXIMVI
[6] = tested on: MEL-HO
[7] = tested on: MZ2-MEL
[8] = tested on: MeWo
[9] = tested on: RPMI7951
[10] = tested on: RVH-421
[11] = tested on: SkMel28
[12] = tested on: SkMel2
[13] = tested on: SkMel30
[14] = tested on: SkMel5
[15] = tested on: UACC257
[16] = tested on: UACC62
[17] = tested on: WM115
[18] = tested on: WM1716
[19] = tested on: WM1745
[20] = tested on: WM3526
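Further: cells treated in 1,536-well plates, then fixed and DAPI-stained, with nuclei counted from automated high-throughput microscope images.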

SMILES | cell count [1] [%] | cell count [2] [%] | cell count [3] [%] | cell count [4] [%] | cell count [5] [%] | cell count [6] [%] | cell count [7] [%] | cell count [8] [%] | cell count [9] [%] | cell count [10] [%] | cell count [11] [%] | cell count [12] [%] | cell count [13] [%] | cell count [14] [%] | cell count [15] [%] | cell count [16] [%] | cell count [17] [%] | cell count [18] [%] | cell count [19] [%] | cell count [20] [%]
N.N.[Cl][Pt][Cl] [cisplatin] + Cn1nnc2c(C(N)=O)ncn2c1=O [temozolomide] (first compound 8 µM, partner dose 10 µM) | 101 | 99.4 | 70.2 | 113 | 76.4 | 104 | 101 | 92.2 | 88.6 | 163 | 24.8 | 112 | 71.2 | 120 | 108 | 64.6 | 91 | 39.5 | 126 | 111
N.N.[Cl][Pt][Cl] [cisplatin] + CN1CCN(c2ccc3nc(-c4c(N)c5c(F)cccc5[nH]c4=O)[nH]c3c2)CC1 [Dovitinib] (first compound 8 µM, partner dose 0.5 µM) | 72 | 85.1 | 83.7 | 69 | 69.6 | 65.7 | 77.2 | 51.3 | 47.8 | 68.2 | 35.1 | 71.2 | 88.6 | 69.5 | 73.2 | 69.7 | 56.5 | 68.5 | 55.2 | 73
C[As](C)SC[C@H](NC(=O)CC[C@H](N)C(=O)O)C(=O)NCC(=O)O [Darinaparsin] + O=C(CCCCCCC(=O)Nc1ccccc1)NO [vorinostat] (first compound 2 µM, partner dose 0.4 µM) | 71.6 | 95.5 | 78.1 | 80.9 | 59.8 | 85.6 | 107 | 72.1 | 66.5 | 96.5 | 43.4 | 88.1 | 95.5 | 58.5 | 57.9 | 77 | 67 | 72.1 | 80.9 | 60.2
Cn1cc(C2=C(c3cn(C4CCN(Cc5ccccn5)CC4)c4ccccc34)C(=O)NC2=O)c2ccccc21 [Enzastaurin] + COc1ccc(Cl)c(Nc2nc3ccccc3nc2NS(=O)(=O)c2cccc(NC(=O)C(C)(C)N)c2)c1 [XL147] (first compound 4 µM, partner dose 4 µM) | 69.3 | 88 | 67.8 | 86.7 | 126 | 70.9 | 108 | 104 | 58.1 | 88.3 | 73.7 | 91.2 | 106 | 72.5 | 81.3 | 70.2 | 122 | 70.7 | 56.8 | 91
N.N.[Cl][Pt][Cl] [cisplatin] + C=C(c1ccc(C(=O)O)cc1)c1cc2c(cc1C)C(C)(C)CCC2(C)C [Bexarotene] (first compound 8 µM, partner dose 10 µM) | 78.5 | 75.3 | 81.7 | 84.7 | 86.9 | 74.2 | 73 | 94.7 | 94.8 | 83.4 | 79.6 | 92.1 | 94 | 89.3 | 84.3 | 63.1 | 104 | 87 | 115 | 66.2
Cn1cc(C2=C(c3cn(C4CCN(Cc5ccccn5)CC4)c4ccccc34)C(=O)NC2=O)c2ccccc21 [Enzastaurin] + CO[C@@H]1[C@H](N(C)C(=O)c2ccccc2)C[C@H]2O[C@]1(C)n1c3ccccc3c3c4c(c5c6ccccc6n2c5c31)C(=O)NC4 [Midostaurin] (first compound 4 µM, partner dose 0.4 µM) | 30 | 79.5 | 47.2 | 51 | 58.9 | 69.2 | 60.5 | 65.6 | 30.5 | 43.5 | 51.4 | 52.7 | 47.6 | 45 | 51.4 | 46 | 45 | 28.4 | 26.7 | 63.5
N.N.[Cl][Pt][Cl] [cisplatin] + CC1(C)NC(=O)N(c2ccc([N+](=O)[O-])c(C(F)(F)F)c2)C1=O [nilutamide] (first compound 8 µM, partner dose 5 µM) | 95.9 | 111 | 96 | 87.6 | 68.4 | 93.7 | 113 | 110 | 85.3 | 75.1 | 78.6 | 101 | 98.3 | 90.2 | 83.1 | 91.8 | 90.1 | 86.2 | 87.5 | 98.9
C[As](C)SC[C@H](NC(=O)CC[C@H](N)C(=O)O)C(=O)NCC(=O)O [Darinaparsin] + C[C@@H]1CCN(C(=O)CC#N)C[C@@H]1N(C)c1ncnc2[nH]ccc12 [CP690550] (first compound 2 µM, partner dose 5 µM) | 79.8 | 100 | 103 | 90.8 | 80.1 | 108 | 114 | 80.9 | 86.9 | 97.5 | 79.4 | 86 | 116 | 64.1 | 87 | 93.2 | 65.7 | 65.3 | 101 | 70.9
N.N.[Cl][Pt][Cl] [cisplatin] + COc1ccc(Cl)c(Nc2nc3ccccc3nc2NS(=O)(=O)c2cccc(NC(=O)C(C)(C)N)c2)c1 [XL147] (first compound 8 µM, partner dose 4 µM) | 86.2 | 103 | 72.1 | 83.7 | 82.3 | 73.4 | 100 | 80 | 73.4 | 72 | 100 | 87.4 | 112 | 111 | 49.8 | 84.7 | 115 | 107 | 100 | 81
